Test results published in the supplement of paper PMC8728848.
This is one part of the list.

How the values were obtained:
Experiment in all cases: glycan array binding signal (z-score within array); higher = stronger binding
Conditions in all cases: glycan notation: IUPAC condensed, linker removed
[1] = target: Fuc(a1-2)Gal(b1-4)[Fuc(a1-3)]GlcNAc(b1-2)Man(a1-3)[Fuc(a1-2)Gal(b1-4)[Fuc(a1-3)]GlcNAc(b1-2)Man(a1-6)]Man(b1-4)GlcNAc(b1-4)[Fuc(a1-6)]GlcNAc
Summary of the method: (§1)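 Negative Z-scores can be read as non-binding. The Z-score is calculated within each array and then averaged across arrays of one protein sequence at different concentrations or buffers and across linkers. Arrays, 3228 in all, were curated from the Consortium for Functional Glycomics database and kept only where the protein sequence was available.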

[2] = target: Fuc(a1-2)Gal(b1-4)[Fuc(a1-3)]GlcNAc(b1-2)[Fuc(a1-2)Gal(b1-4)[Fuc(a1-3)]GlcNAc(b1-4)]Man(a1-3)[Fuc(a1-2)Gal(b1-4)[Fuc(a1-3)]GlcNAc(b1-2)Man(a1-6)]Man(b1-4)GlcNAc(b1-4)GlcNAc
Summary of the method: as §1

[3] = target: Fuc(a1-2)Gal(b1-4)[Fuc(a1-3)]GlcNAc(b1-3)Gal(b1-4)[Fuc(a1-3)]GlcNAc
Summary of the method: as §1

[4] = target: Fuc(a1-2)Gal(b1-4)[Fuc(a1-3)]GlcNAc(b1-3)Gal(b1-4)[Fuc(a1-3)]GlcNAc(b1-3)Gal(b1-4)[Fuc(a1-3)]GlcNAc
Summary of the method: as §1

[5] = target: Fuc(a1-2)Gal(b1-4)[Fuc(a1-3)]GlcNAc(b1-3)GalNAc
Summary of the method: as §1

[6] = target: Fuc(a1-2)Gal(b1-4)[Fuc(a1-3)]GlcNAc(b1-3)[Neu5Ac(a2-6)Gal(b1-4)GlcNAc(b1-6)]Gal(b1-4)Glc
Summary of the method: as §1

[7] = target: Fuc(a1-2)Gal3S(b1-4)GlcNAc
Summary of the method: as §1

[8] = target: Fuc(a1-2)Gal6S(b1-3)GlcNAc
Summary of the method: as §1

[9] = target: Fuc(a1-2)Gal6S(b1-3)GlcNAc6S
Summary of the method: as §1

Fuc(a1-2)Gal6S(b1-4)Glc = target: Fuc(a1-2)Gal6S(b1-4)Glc
Summary of the method: as §1

[10] = target: Fuc(a1-2)Gal6S(b1-4)Glc6S
Summary of the method: as §1

Fuc(a1-2)[Gal(a1-3)]Gal = target: Fuc(a1-2)[Gal(a1-3)]Gal
Summary of the method: as §1

[11] = target: Fuc(a1-2)[Gal(a1-3)]Gal(b1-3)GalNAc
Summary of the method: as §1

[12] = target: Fuc(a1-2)[Gal(a1-3)]Gal(b1-3)GalNAc(b1-3)Gal(a1-4)Gal(b1-4)Glc
Summary of the method: as §1

[13] = target: Fuc(a1-2)[Gal(a1-3)]Gal(b1-3)GlcNAc
Summary of the method: as §1

[14] = target: Fuc(a1-2)[Gal(a1-3)]Gal(b1-3)GlcNAc(b1-2)Man(a1-3)[Fuc(a1-2)[Gal(a1-3)]Gal(b1-3)GlcNAc(b1-2)Man(a1-6)]Man(b1-4)GlcNAc(b1-4)GlcNAc
Summary of the method: as §1

[15] = target: Fuc(a1-2)[Gal(a1-3)]Gal(b1-3)GlcNAc(b1-2)Man(a1-3)[Fuc(a1-2)[Gal(a1-3)]Gal(b1-3)GlcNAc(b1-2)Man(a1-6)]Man(b1-4)GlcNAc(b1-4)[Fuc(a1-6)]GlcNAc
Summary of the method: as §1

[16] = target: Fuc(a1-2)[Gal(a1-3)]Gal(b1-3)GlcNAc(b1-3)GalNAc
Summary of the method: as §1

[17] = target: Fuc(a1-2)[Gal(a1-3)]Gal(b1-3)GlcNAc(b1-6)GalNAc
Summary of the method: as §1

[18] = target: Fuc(a1-2)[Gal(a1-3)]Gal(b1-4)Glc
Summary of the method: as §1

[19] = target: Fuc(a1-2)[Gal(a1-3)]Gal(b1-4)GlcNAc
Summary of the method: as §1

[20] = target: Fuc(a1-2)[Gal(a1-3)]Gal(b1-4)GlcNAc(b1-2)Man
Summary of the method: as §1

[21] = target: Fuc(a1-2)[Gal(a1-3)]Gal(b1-4)GlcNAc(b1-2)Man(a1-3)[Fuc(a1-2)[Gal(a1-3)]Gal(b1-4)GlcNAc(b1-2)Man(a1-6)]Man(b1-4)GlcNAc(b1-4)GlcNAc
Summary of the method: as §1

[22] = target: Fuc(a1-2)[Gal(a1-3)]Gal(b1-4)GlcNAc(b1-2)Man(a1-3)[Fuc(a1-2)[Gal(a1-3)]Gal(b1-4)GlcNAc(b1-2)Man(a1-6)]Man(b1-4)GlcNAc(b1-4)[Fuc(a1-6)]GlcNAc
Summary of the method: as §1

[23] = target: Fuc(a1-2)[Gal(a1-3)]Gal(b1-4)GlcNAc(b1-3)GalNAc
Summary of the method: as §1

[24] = target: Fuc(a1-2)[Gal(a1-3)]Gal(b1-4)GlcNAc(b1-6)GalNAc
Summary of the method: as §1

[25] = target: Fuc(a1-2)[Gal(a1-3)]Gal(b1-4)[Fuc(a1-3)]Glc
Summary of the method: as §1

[26] = target: Fuc(a1-2)[Gal(a1-3)]Gal(b1-4)[Fuc(a1-3)]GlcNAc
Summary of the method: as §1

[27] = target: Fuc(a1-2)[Gal(a1-3)]Gal(b1-4)[Fuc(a1-3)]GlcNAc(b1-3)GalNAc
Summary of the method: as §1

[28] = target: Fuc(a1-2)[Gal(a1-4)]Gal(b1-4)GlcNAc
Summary of the method: as §1

[29] = target: Fuc(a1-2)[GalNAc(a1-3)]Gal
Summary of the method: as §1

[30] = target: Fuc(a1-2)[GalNAc(a1-3)]Gal(b1-3)GalNAc(a1-3)[Fuc(a1-2)]Gal(b1-4)GlcNAc
Summary of the method: as §1

[31] = target: Fuc(a1-2)[GalNAc(a1-3)]Gal(b1-3)GalNAc(b1-3)Gal(a1-4)Gal(b1-4)Glc
Summary of the method: as §1

[32] = target: Fuc(a1-2)[GalNAc(a1-3)]Gal(b1-3)GlcNAc
Summary of the method: as §1

[33] = target: Fuc(a1-2)[GalNAc(a1-3)]Gal(b1-3)GlcNAc(b1-2)Man(a1-3)[Fuc(a1-2)[GalNAc(a1-3)]Gal(b1-3)GlcNAc(b1-2)Man(a1-6)]Man(b1-4)GlcNAc(b1-4)GlcNAc
Summary of the method: as §1

[34] = target: Fuc(a1-2)[GalNAc(a1-3)]Gal(b1-3)GlcNAc(b1-2)Man(a1-3)[Fuc(a1-2)[GalNAc(a1-3)]Gal(b1-3)GlcNAc(b1-2)Man(a1-6)]Man(b1-4)GlcNAc(b1-4)[Fuc(a1-6)]GlcNAc
Summary of the method: as §1

[35] = target: Fuc(a1-2)[GalNAc(a1-3)]Gal(b1-3)GlcNAc(b1-3)GalNAc
Summary of the method: as §1

[36] = target: Fuc(a1-2)[GalNAc(a1-3)]Gal(b1-3)GlcNAc(b1-6)GalNAc
Summary of the method: as §1

B1: Clrb (Mus musculus) (protein)
chain: ITGATKTEQIPVNKTYAACPQNWIGVENKCFYFSEYPSNWTFAQAFCMAQEAQLARFDNQDELNFLMRYKANFDSWIGLHRESSEHPWKWTDNTEYNNTIPIRGEERFAYLNNNGISSTRIYSLRMWICSKLNSYSLHCQTPFFPSGTKHHHHHHHHG
- glycan array binding signal (z-score) [1]: -0.331
- glycan array binding signal (z-score) [2]: -0.314
- glycan array binding signal (z-score) [3]: -0.259
- glycan array binding signal (z-score) [4]: -0.391
- glycan array binding signal (z-score) [5]: -0.388
- glycan array binding signal (z-score) [6]: -0.359
- glycan array binding signal (z-score) [7]: -0.31
- glycan array binding signal (z-score) [8]: -0.266
- glycan array binding signal (z-score) [9]: -0.079
- glycan array binding signal (z-score) (Fuc(a1-2)Gal6S(b1-4)Glc): -0.313
- glycan array binding signal (z-score) [10]: -0.186
- glycan array binding signal (z-score) (Fuc(a1-2)[Gal(a1-3)]Gal): -0.293
- glycan array binding signal (z-score) [11]: -0.421
- glycan array binding signal (z-score) [12]: -0.424
- glycan array binding signal (z-score) [13]: -0.244
- glycan array binding signal (z-score) [14]: -0.206
- glycan array binding signal (z-score) [15]: -0.384
- glycan array binding signal (z-score) [16]: -0.316
- glycan array binding signal (z-score) [17]: -0.43
- glycan array binding signal (z-score) [18]: -0.463
- glycan array binding signal (z-score) [19]: -0.382
- glycan array binding signal (z-score) [20]: -0.471
- glycan array binding signal (z-score) [21]: -0.479
- glycan array binding signal (z-score) [22]: -0.342
- glycan array binding signal (z-score) [23]: -0.35
- glycan array binding signal (z-score) [24]: -0.025
- glycan array binding signal (z-score) [25]: -0.477
- glycan array binding signal (z-score) [26]: -0.16
- glycan array binding signal (z-score) [27]: -0.354
- glycan array binding signal (z-score) [28]: -0.157
- glycan array binding signal (z-score) [29]: -0.264
- glycan array binding signal (z-score) [30]: -0.188
- glycan array binding signal (z-score) [31]: -0.407
- glycan array binding signal (z-score) [32]: -0.508
- glycan array binding signal (z-score) [33]: -0.318
- glycan array binding signal (z-score) [34]: -0.308
- glycan array binding signal (z-score) [35]: -0.459
- glycan array binding signal (z-score) [36]: -0.441
